Source: PubChem BioAssay AID485281 (National Center for Advancing Translational Sciences (NCATS), 2010)
Hit rate of the full screen: of about 350,000 compounds, about 260 (0.074%) were called active. The inconclusive results got no clear call from the source; some entries with a clear call stand among them for comparison. The call rests on the fitted dose curve; in most records, active means well fitted inhibition curve with a large enough effect; inconclusive means small, poorly fitted or top-dose-only effect; inactive means no such curve, though single readings can be large or run the other way. A potency beside an inconclusive call is a rough fit, not a confirmed value.

These compounds were tested against Ferritin light chain (Equus caballus) (UniProt P02791) (assay: qHTS Assay for Identification of Novel General Anesthetics). Conditions: apoferritin/1-aminoanthracene competitive binding, fluorescence; activity change, negative = displacement: at 77.5 µM (top of the series).
Summary of the method: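 10 uM apoferritin + 50% sat. 1-AMA, PBS; cpd 10 min RT; Ex380/Em535 endpoint; normalized to free probe vs complex; 4-param Hill fit; propofol titration as pos. ctrl.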
Further: nearly all actives have a fitted effect of over 20% in size.
On the % scale 0 is the no-effect control and ±100 the full control effect; potency means the concentration at half of the fitted maximal effect; tags describe the fitted curve by direction and shape.

UniProt P02791, sequence (P02791 whole entry, looked up): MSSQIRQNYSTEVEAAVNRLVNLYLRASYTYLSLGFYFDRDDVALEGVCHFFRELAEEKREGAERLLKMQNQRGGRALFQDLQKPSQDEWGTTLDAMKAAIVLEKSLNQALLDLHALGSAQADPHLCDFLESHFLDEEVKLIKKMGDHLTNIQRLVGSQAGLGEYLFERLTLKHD

Structure (SMILES)	Potency	activity change, negative = displacement
CC(=O)N1CCCC(C(=O)c2ccc3c4c(cccc24)CC3)C1 (configuration not stated)	inconclusive: 12.6 µM [inhibitor, partial curve]	–
Cc1ccc(OCC(=O)Nc2ccc(Cl)c(-c3nc4ccccc4[nH]3)c2)cc1C	inconclusive: 11.2 µM [inhibitor, full curve]	–
O=C(Nc1ccc2nc(C3CC3)n(Cc3ccc(F)cc3)c(=O)c2c1)c1ccco1	inconclusive: 31.6 µM [inhibitor, partial curve]	–
Cc1ccccc1-c1cnn(-c2cccc([N+](=O)[O-])c2)c1N	inconclusive: 25.1 µM [inhibitor, single point]	–
CC(C)CC(NC(=O)C(CC(C)C)NC(=O)OC(C)(C)C)C(=O)O (configuration not stated)	–	inactive: 4.35%
CC(C)(C)c1ccc(C2NC(=O)c3n[nH]c(-c4cccs4)c32)cc1 (configuration not stated)	inconclusive: 3.98 µM [inhibitor, full curve]	–
COCn1c(C(O)c2ccccc2)cc2ccccc21 (configuration not stated)	inconclusive: 31.6 µM [inhibitor, single point]	–
Cc1cccn2c(=O)c3cc(C(=O)NCCc4ccccc4)c(=N)n(CCCn4ccnc4)c3nc12	–	inactive: 102%
Cc1ccc(N=Cc2cc(Cc3ccccc3Cl)cc([N+](=O)[O-])c2O)c(O)c1	inconclusive: 6.31 µM [inhibitor, partial curve]	–
O=C(CC(=O)c1ccccc1O)c1cccc(F)c1	inconclusive: 31.6 µM [inhibitor, partial curve]	–
CCN(Cc1ccccc1)C(=O)/C=C/c1ccccc1[N+](=O)[O-]	inconclusive: 28.2 µM [inhibitor, partial curve]	–
COc1cccc(/C=C/C(=O)c2ccc(NC3=NCCCS3)cc2)c1	inconclusive: 25.1 µM [inhibitor, partial curve]	–
Cc1ccsc1/C=C1\CCC(C2CCCC2)C1=O (configuration not stated)	inconclusive: 31.6 µM [inhibitor, partial curve]	–
Cc1ccc(C(=O)NC(=S)Nc2ccc(CN3CCCCC3)cc2)c(C)c1	inconclusive: 35.5 µM [inhibitor, single point]	–
Cc1ccc(NS(=O)(=O)c2cccc(C(=O)NNC(=O)c3cccn3C)c2)c(C)c1	inconclusive: 28.2 µM [inhibitor, single point]	–
O=C(Nc1ccccc1)N1CCN2C(=O)c3ccccc3C12c1ccccc1 (configuration not stated)	inconclusive: 12.6 µM [inhibitor, partial curve]	–
CC(C)C(=O)NC(=S)Nc1ccc(S(=O)(=O)N(C)Cc2ccccc2)cc1	inconclusive: 4.47 µM [inhibitor, full curve]	–
COc1cc(CNCCN2CCOCC2)ccc1OCc1ccccc1Cl	inconclusive: 15.8 µM [inhibitor, partial curve]	–
O=C(OCC1CC(c2ccccn2)=NO1)c1ccc(Br)cc1 (configuration not stated)	inconclusive: 35.5 µM [inhibitor, partial curve]	–
CN(CC(=O)Nc1ccc(F)c(F)c1F)C1CCCCC1	inconclusive: 35.5 µM [inhibitor, partial curve]	–
COc1ccc(NC(=O)C2=CC(c3ccc(OC)c(OC)c3)=NS(=O)(=O)N2C)cc1	inconclusive: 17.8 µM [inhibitor, partial curve]	–
CC(=O)Nc1ccc(NC(=O)C(C)OC(=O)CSc2ccc(Br)cc2C)cc1 (configuration not stated)	inconclusive: 31.6 µM [inhibitor, partial curve, poor fit]	–
CC1CCN(C(=O)CSc2ccc(-c3ccc(F)cc3)nn2)CC1	inconclusive: 35.5 µM [inhibitor, partial curve]	–

Structure (SMILES)	Potency	activity change, negative = displacement
Cc1cccc(-c2nnc3sc(-c4ccccc4C)nn23)c1	inconclusive: 25.1 µM [inhibitor, partial curve]	–
CCN(c1ccc(NC(=O)COC(=O)CCc2cc(OC)c(OC)c(OC)c2)cc1)C(C)C	inconclusive: 35.5 µM [inhibitor, single point]	–
CCc1ccc2nc(N(CCCN(C)C)C(=O)c3ccc(S(=O)(=O)N(C)C4CCCCC4)cc3)sc2c1	inconclusive: 15.8 µM [inhibitor, partial curve]	–
CCc1ccc(NC2=CC(=O)CC(c3ccco3)C2)cc1 (configuration not stated)	inconclusive: 44.7 µM [inhibitor, single point]	–
O=C(CN1C(=O)C2C3C=CC(C4CC34)C2C1=O)Oc1ccccc1 (configuration not stated)	inconclusive: 25.1 µM [inhibitor, partial curve]	–
c1cc2c3c(cccc3c1)NC1(CCCCC1)N2	inconclusive: 20 µM [inhibitor, partial curve]	–
Cc1ccc(NC(=O)C2CCCCC2)c(O)c1	inconclusive: 20 µM [inhibitor, partial curve]	–
Cc1nnsc1C(=O)Oc1ccc(C(C)C)cc1	inconclusive: 35.5 µM [inhibitor, partial curve]	–
Cc1nc(NC(=O)c2cccc(Cl)c2)sc1C(=O)N1CCCCC1	inconclusive: 3.98 µM [inhibitor, partial curve]	–
CC/C(=C/c1sc2ccc(C)cc2[n+]1CCCS(=O)(=O)[O-])SC	–	inactive: -10.1%
COC(=O)[C@@H](Cc1c[nH]c2ccccc12)NC(=O)CCC(=O)c1ccc(Br)cc1	inconclusive: 35.5 µM [inhibitor, single point]	–
Cc1nc(N2CCN(C(=O)c3ccc(Cl)cc3)CC2)c(C#N)c2c1COC(C)(C)C2	inconclusive: 31.6 µM [inhibitor, partial curve]	–
O=C(Cc1ccc(F)cc1)N1CCC(c2nc3c(nnn3Cc3ccc(F)cc3)c(=O)[nH]2)CC1	inconclusive: 56.2 µM [inhibitor, single point]	–
CC(=O)Nc1ccc(OCC(O)Cn2c(C)nc3ccccc32)cc1 (configuration not stated)	–	inactive: -4.48%
Cc1ccc(CNC(=O)c2nc(-c3ccc(Cl)cc3)n3c2CCCCC3)cc1	–	inactive: 35.2%
CC1CCN(C(=O)/C(=C/c2ccccc2Cl)c2ccccc2)CC1	inconclusive: 39.8 µM [inhibitor, partial curve]	–
COc1ccc(-c2c(-c3ccccc3OC)sc3ccccc23)cc1OC	–	inactive: 54.2%
CCC(=O)Nc1ccc(-c2nn3c(C)nnc3s2)cc1C	–	inactive: -12.1%
O=C(NC(CC(=O)N1CCN(c2ccc([N+](=O)[O-])cc2)CC1)c1ccccc1)c1ccccc1Cl (configuration not stated)	–	inactive: -12.9%
CCC(C)(C)n1nnnc1C(c1cccs1)N1CCN(Cc2ccccc2)CC1 (configuration not stated)	inconclusive: 22.4 µM [inhibitor, partial curve]	–
COc1ccc(Sc2cc(C(F)(F)F)nc(-c3ccccn3)n2)cc1	inconclusive: 44.7 µM [inhibitor, partial curve]	–
Cc1ccc(OCC(=O)Nc2ccc(N3CCCC3)cc2)cc1C	inconclusive: 31.6 µM [inhibitor, partial curve]	–
CC(=O)NC(NC(=S)Nc1ccc(C)cc1C)C(Cl)(Cl)Cl (configuration not stated)	–	inactive: -8.08%

Structure (SMILES)	Potency	activity change, negative = displacement
CC1(C)CC(=O)C(=Cc2cn(CCC#N)nc2-c2ccc(F)cc2)C(=O)C1	inconclusive: 28.2 µM [inhibitor, single point]	–
CCc1ccc(N2C(=O)Cc3c2nc(N)c(C#N)c3N)cc1	inconclusive: 50.1 µM [inhibitor, single point]	–
CCOC(=O)C1CCN(Cc2c(O)c3ccccc3oc2=O)CC1	–	inactive: -0.659%
O=C(CCCSc1nnc(Nc2ccccc2F)s1)N1CCOCC1	–	inactive: -2.92%
Cc1cc(C)c(C#N)c(=N)o1	–	inactive: -3.84%
CCOC(=O)c1noc2ncn(CC(=O)Nc3cccc(C(F)(F)F)c3)c(=O)c12	–	inactive: 1.68%
Cc1oc(-c2ccccc2Cl)nc1CS(=O)(=O)CC(=O)NCc1ccc(F)cc1	inconclusive: 3.98 µM [inhibitor, full curve]	–
O=C(N=Nc1c(O)[nH]c2ccc(Br)cc12)c1ccccc1-n1cccc1	inconclusive: 20 µM [inhibitor, partial curve]	–
Cc1c(C)c2ccc(OCC(=O)Nc3ccccn3)c(C)c2oc1=O	–	inactive: 2.72%
CCOc1ccc(C(=O)NC(=S)Nc2ncccc2C)cc1[N+](=O)[O-]	inconclusive: 39.8 µM [inhibitor, single point]	–
CCOc1ccc(N(CC(=O)NC2CCCCCC2)S(=O)(=O)c2ccccc2)cc1	inconclusive: 12.6 µM [inhibitor, partial curve]	–
CCn1c(SCc2c(F)cccc2Cl)nc(=O)c2c(C(=O)OC)cc(C3CC3)nc21	inconclusive: 50.1 µM [inhibitor, partial curve, poor fit]	–
CCCCOC(=O)c1ccc(N)cc1	inconclusive: 25.1 µM [inhibitor, partial curve]	–
Cc1cccc(N2C(=O)CN(Cc3cccs3)C2=S)c1	inconclusive: 28.2 µM [inhibitor, partial curve]	–
Oc1c(Br)cc(/C=N/n2c(-c3ccccc3)n[nH]c2=S)c(O)c1Br	–	inactive: -2.7%
COc1ccc(C(=O)CSc2nnc(CCc3ccccc3)n2-c2ccccc2)cc1	inconclusive: 11.2 µM [inhibitor, partial curve]	–
Cc1nn(C)cc1CN(C)C(=O)c1cc(-c2ccccc2)nc2ccc(Br)cc12	inconclusive: 35.5 µM [inhibitor, partial curve]	–
CCOc1ccc(CCNC(=O)c2oc(=O)c3ccccc3c2-c2ccc(C)cc2)cc1OCC	inconclusive: 28.2 µM [inhibitor, partial curve]	–
CCOc1ccc(NC(=O)CCSc2nc3c(c(CC)c2C#N)C(=O)CC(C)(C)C3)cc1	inconclusive: 8.91 µM [inhibitor, partial curve]	–
CCOC(=O)CSc1nc(C)c(CC)c(C)c1C(N)=O	–	inactive: -6.99%
Cc1ccc(Nc2nc(C)c(CCC(C)C)c(=O)[nH]2)cc1	inconclusive: 44.7 µM [inhibitor, partial curve]	–
